# Reference: PubChem BioAssay AID588855 (National Center for Advancing Translational Sciences (NCATS), 2011)
# “And” between values parts separate entries of the source, which are not always exact repeats. Equal values may be shown once. In all, about 410,000 compounds went through this assay and about 5,000 (1.2%) were called active. This list was built around the results that the source calls inconclusive (neither active nor inactive); the mix of calls is not that of the screen. Calls follow the shape of the dose curve; as a rule, active = well fitted inhibition curve with a large enough effect; inconclusive = small, poorly fitted or top-dose-only effect; inactive = no such curve, though single readings can be large or run the other way. Potencies beside an inconclusive call are fits to weak or partial responses and may not hold up.
# Test: qHTS for Inhibitors of TGF-b; also: nearly all actives have a fitted effect of over 65% in size
# Conditions: HepG2 CAGA-GFP TGF-b/SMAD3 reporter, GFP fluorescence, 18 h, TGF-beta stimulated, 500 pg/mL final; series mostly up to 46.1 µM
# In short: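 Per well, imaged GFP fluorescence of HEPG2 CAGA-GFP cells gives the signal; cells get compound, then TGF-beta (500 pg/mL final), 18 h at 37 degrees C; %Activity versus -TGF-beta and +DMSO controls.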
# Potency is read from the fitted curve at half-maximal effect; tags tell the direction and shape of the fitted curve.
row,SMILES,Potency
1,COc1cc(-c2coc3c(C(=O)NCc4ccccc4)cccc23)ccc1O,inactive
2,O=C1N=C(N2CCCCC2)SC1=C1CCCC1,inactive
3,C=CC1=CCN(S(=O)C(C)(C)C)[C@@H]1CCO (stereo partly specified),inactive
4,Cc1cccc(C(=O)N[C@H](C(=O)Nc2nc3ccccc3[nH]2)C(C)C)c1,"inconclusive: 2.82 µM [inhibitor, full curve, poor fit]"
5,CCn1c2ccccc2c2cc(/C=N/NC(=O)c3ccncc3)ccc21,active: 8.91 µM
6,CCOc1ccc(CCNC(=O)CS(=O)(=O)Cc2nc(-c3cccc(OC)c3)oc2C)cc1,"inconclusive: 1.78 µM [inhibitor, partial curve, poor fit]"
7,Cc1ccc(Nc2nc(NCc3ccco3)nc3nccnc23)cc1Cl,inactive
8,COc1ccccc1N1CCN(c2ncnc3c2cnn3C)CC1,inactive
9,Cc1c(C#N)c(NC(=O)c2cccc(Cl)c2)n(Cc2ccccc2)c1C,"inconclusive: 3.16 µM [inhibitor, single point]"
10,Cc1ccc(-n2cc(CN(C)Cc3ncc[nH]3)c(-c3cccc(C)c3)n2)cc1,"inconclusive: 35.5 µM [inhibitor, single point]"
11,COc1ccc(OC)c(C(=O)NC2CC(C)(C)Cc3c2cnn3-c2ccccc2)c1 (stereo unspecified),"inconclusive: 20 µM [inhibitor, single point]"
12,COc1ccc(C(=O)Nc2ccc(C)c(S(=O)(=O)N3CCOCC3)c2)cc1S(=O)(=O)N1CCCC1,active: 11.2 µM
13,CCc1ccc(C(=O)COC(=O)C(Cc2c[nH]c3ccccc23)NC(=O)c2ccc(Br)cc2)cc1 (stereo unspecified),inactive
14,CC1=NN(C(N)=S)C(=O)C1N=Nc1ccccc1C (stereo unspecified),inactive
15,CC(C)=CCC12Oc3cc(O)ccc3C1(O)Oc1cc(O)c([C@H]3C=C(C)CC(c4ccc(O)cc4O)[C@H]3C(=O)c3ccc(O)cc3O)c(O)c1C2=O (stereo partly specified),"inconclusive: 15.8 µM [inhibitor, single point]"
16,COc1ccccc1NS(=O)(=O)c1ccc2oc(SCc3ccc(F)cc3)nc2c1,inactive
17,CC(C)(C)c1ccc(Oc2ccc(NC(=O)c3ccco3)cn2)cc1,active: 11.2 µM
18,CCOC(=O)c1cccc(NC(=O)C2CCN(S(=O)(=O)c3ccc4c(c3)oc(=O)n4C)CC2)c1,"inconclusive: 14.1 µM [inhibitor, single point]"
19,CCOc1ccc(C2=NC(c3cccs3)=Nc3ccc(C(C)C)cc3N2)cc1,inactive
20,CC1=NN(c2ccc(F)cc2)C(=O)C1C(c1cccc(O)c1)c1c(C)[nH]n(-c2ccc(F)cc2)c1=O (stereo unspecified),"inconclusive: 35.5 µM [inhibitor, single point]"
21,CCN(CC)CCCNC(=O)/C=C/C(=O)O,inactive
22,CCOC(=O)c1c(C)[nH]c(C(=O)NCC(c2ccco2)N2CCCCC2)c1C (stereo unspecified),inactive
23,CC(=O)N/C(=C\c1ccccc1)C(=O)OCc1ccc(F)cc1,inactive
24,COc1cc(/C=N/Nc2nc(Nc3ccc(C)cc3)nc(-n3nc(C)cc3C)n2)cc(OC)c1OC,"inconclusive: 3.55 µM [inhibitor, partial curve, poor fit]"

row,SMILES,Potency
1,Cc1ccccc1NC(=O)CCN1CCN(Cc2ccccc2)CC1,inactive
2,O=C(CN1CCN(CC(=O)Nc2ccccc2Cl)CC1)Nc1ccc2c(c1)OCCO2,inactive
3,OCCC1CN(Cc2cnc(-c3cccc4ccccc34)nc2)CCN1C1CCCCC1 (stereo unspecified),inactive
4,O=C(Cc1ccc(Cl)cc1)NC(=S)Nc1ccccc1O,"inconclusive: 11.2 µM [inhibitor, partial curve]"
5,O=C(NCc1cccs1)c1nc2c(nnn2Cc2ccccc2Cl)c(=O)[nH]1,"inconclusive: 1.26 µM [inhibitor, full curve, poor fit]"
6,COc1ccccc1N1CCN(C(=O)c2ccccc2SCC(=O)N2CCCC2)CC1,inactive
7,CC(C)CN(C(=O)COC(=O)Cc1ccc(Cl)cc1)c1c(N)n(Cc2ccccc2)c(=O)[nH]c1=O,"inconclusive: 11.2 µM [inhibitor, partial curve]"
8,O=C1CC(c2ccc(F)cc2)c2cc3c(cc2N1)CCC3 (stereo unspecified),"inconclusive: 22.4 µM [inhibitor, single point]"
9,Cc1ccc(C(C)(C)C)c(OCC(=O)NCCc2nc3ccccc3[nH]2)c1,"inconclusive: 7.08 µM [inhibitor, partial curve, poor fit]"
10,CC1=NN(c2nc(-c3ccc(Cl)cc3)cs2)C(=O)C1,inactive
11,CC(C)(C)CC(C)(C)NC(=O)CSCC(=O)Nc1ccc2ccccc2c1,"inconclusive: 35.5 µM [inhibitor, single point]"
12,Cc1ccccc1NS(=O)(=O)c1ccc(Br)s1,inactive
13,CC1CN(S(=O)(=O)c2ccc(C(=O)NCCCn3ccnc3)cc2)CC(C)O1 (stereo unspecified),inactive
14,COc1cc(SC)ccc1C(=O)N(CC(=O)Nc1ccccc1Br)Cc1ccco1,inactive
15,Cc1ccc(C)c(Nc2nc(-c3cccnc3)cs2)c1,inactive
16,COc1ccc(-c2nc3sc(CCNC(=O)c4cc(Cl)ccc4OC)c(C)n3n2)cc1,inactive
17,O=C(Nc1ccccc1)c1ccc(-c2ccccc2C(F)(F)F)o1,"inconclusive: 3.55 µM [inhibitor, partial curve, poor fit]"
18,COc1cc(NC(=O)CSc2nc3nc(C)c(Cc4ccc(C)cc4)c(C)n3n2)cc(OC)c1,"inconclusive: 25.1 µM [inhibitor, single point]"
19,CCCSCCCNC(=O)c1ccc(Cn2c(=O)c3cccn3c3cccnc32)cc1,inactive
20,Cc1cc(C)nc(NC(=O)/C=C/c2ccccc2Cl)n1,inactive
21,C[C@@H]1CN([C@H](C)CO)C(=O)c2cc(NC(=O)Nc3ccc(C(F)(F)F)cc3)ccc2O[C@H]1CN(C)C(=O)Nc1ccc(F)cc1,"inconclusive: 0.562 µM [inhibitor, full curve, poor fit]"
22,CN1CCC2(CC1)Nc1nc(SCc3ccc(Cl)cc3)nn1C1=C2CN(C)CC1,"inconclusive: 22.4 µM [inhibitor, single point]"
23,CCOC(=O)N1CCC(Nc2cccc(SC)c2)CC1,"inconclusive: 10 µM [inhibitor, partial curve]"
24,Cc1ccc(CN2CC[C@H]3C=CCc4cccc(c43)C2)cc1,"inconclusive: 10 µM [inhibitor, partial curve, poor fit]"

row,SMILES,Potency
1,Cn1c(NC(=O)C2CCCO2)cc(=O)n(C)c1=O (stereo unspecified),inactive
2,CC(C)NS(=O)(=O)c1ccc2nc(NC(=O)c3cncc(Br)c3)sc2c1,"inconclusive: 6.31 µM [inhibitor, partial curve, poor fit]"
3,COC(=O)Nc1sc2c(c1C(N)=O)CCCCCC2,inactive
4,Clc1nssc1=Nc1ccc(Br)cc1,"inconclusive: 17.8 µM [inhibitor, single point]"
5,COC(=O)c1ccc(C(=O)OC)c(NC(=S)N2CCN(c3cccc(Cl)c3)CC2)c1,"inconclusive: 14.1 µM [inhibitor, single point]"
6,Cc1c(NS(=O)(=O)c2cccc(C(=O)Nc3ccc(SC(F)F)cc3)c2)c(=O)n(-c2ccccc2)n1C,"inconclusive: 35.5 µM [inhibitor, single point]"
7,COC(=O)c1sccc1NC(=O)C1CCCCC1C(=O)O (stereo unspecified),inactive
8,Cc1c(Cl)cccc1NC(=O)CN1C(=O)COc2ccc(S(=O)(=O)Nc3ccccc3)cc21,active: 10 µM
9,COc1ccc(-c2c([C@H]3[C@@H]4C=CCC[C@@]4(C)C(=O)N3Cc3ccccc3)ccc3ccccc23)cc1OC,"inconclusive: 11.2 µM [inhibitor, partial curve, poor fit]"
10,Cc1cc(=O)oc2cc(OCC3CC(c4ccc(N(C)C)cc4)=NO3)ccc12 (stereo unspecified),inactive
11,O=C(Nc1ccc(Br)cc1)c1cccc(S(=O)(=O)Nc2cnc3ccccc3c2)c1,active: 12.6 µM
12,CCOc1ccc2nc(SCC(=O)NC(=O)NCc3ccco3)[nH]c2c1,"inconclusive: 35.5 µM [inhibitor, single point]"
13,O=C(NC1(Cc2ccccc2)CCN(Cc2ccc(-c3ccccc3)cc2)C1=O)c1ccccc1 (stereo unspecified),"inconclusive: 35.5 µM [inhibitor, single point]"
14,CCC(C)Nc1c2c(nc3c(-c4ccccc4)c(C)nn13)CCC2 (stereo unspecified),"inconclusive: 35.5 µM [inhibitor, single point]"
15,CC(C)COC(=O)c1cccc2c1-c1ccccc1/C2=N\O,active: 14.1 µM
16,Cc1ccc(NC(=O)CCl)cc1S(=O)(=O)N1CCCCCC1,"inconclusive: 35.5 µM [inhibitor, single point]"
17,COc1ccc(C2=NS(=O)(=O)N(C)C(C(=O)NCc3ccccn3)=C2)cc1OC,inactive
18,CCCCCCCCN1[C@@H](CC(=O)OCC)c2ccc(C(F)(F)F)cc2S1(=O)=O,"inconclusive: 35.5 µM [inhibitor, single point] and inconclusive: 11.2 µM [inhibitor, partial curve]"
19,COC(=O)c1ccc(NC(=O)CN2CCN(c3ccc(Cl)cc3)CC2)cc1,"inconclusive: 7.08 µM [inhibitor, partial curve, poor fit]"
20,CC(C)(C)C(=O)OC/C(N)=N/OC(=O)c1ccc(Cl)cc1,"inconclusive: 35.5 µM [inhibitor, partial curve, poor fit]"
21,CCOc1ccccc1-n1cc2c(c1-c1ccc(OC)cc1)c(=O)n(C)c(=O)n2C,"inconclusive: 1 µM [inhibitor, full curve]"
22,Cc1nc2c(OCCC3CCCCC3)cccn2c1N(C)C(=O)CCC1CCCC1,active: 15.8 µM
23,CCOc1cc(CNCc2cc(OC)cc(OC)c2)ccc1OC,"inconclusive: 12.6 µM [inhibitor, partial curve]"
